Measured values published in PubChem BioAssay AID662 (National Center for Advancing Translational Sciences (NCATS), 2007).
Out of some 71,000 compounds screened, about 1,800 (2.5%) were called active. The shares of active, inactive and inconclusive entries below differ from those in the screen. Calls come from the whole dose curve; as a rule, active = well fitted activation curve with a large enough effect in the signal ratio, with a control signal flat (not every such curve was filed as active); inconclusive = small, poorly fitted or top-dose-only effect, or effect the other way, or a change in a side signal; inactive = flat fitted curve, though single readings scatter; the % refers to the signal ratio. A potency beside an inconclusive call is a rough fit, not a confirmed value.

Experiment: Cell signaling CRE-BLA (Fsk stim); for activity change, negative = inhibition: % of control where 0% means no effect
Details: CHO CRE-bla reporter (cAMP response element driving beta-lactamase), forskolin EC10, beta-lactamase ratio
Summary of the method: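 Modulation of forskolin signalling: compounds in titration series added with EC10 NKH 477 to CHO cells carrying a CRE-driven beta-lactamase reporter, 3 h, 37C. CCF4 FRET ratio (460/530 nm, ex 405 nm) gives %activity and AC50.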

[1] = activity change, negative = inhibition: at 38.2 µM (top of the series) unless noted
Potency is the fitted concentration of half-maximal effect; tags give direction and shape of the fitted curve.

With COc1ccc(Cl)cc1S(=O)(=O)N1CCN(Cc2ccc3c(c2)OCO3)CC1 the activity change, negative = inhibition [1] was inconclusive: -4.59%.
With CCn1c2c(c3ccc(OC)cc31)CCCC2=O the Potency [1] was inconclusive: 12.6 µM [rising, single point].
With N#Cc1nc(-c2ccc(OCc3ccccc3)cc2)oc1NCc1cccnc1 the Potency [1] was inconclusive: 2 µM [rising, full curve].
With O=C1CCc2cc(S(=O)(=O)N3CCC(C(=O)NCc4ccccn4)CC3)ccc2N1 the activity change, negative = inhibition [1] was “inactive”.
In the case of c1ccc2c(c1)[nH]c1c(N3CCCC3)ncnc12, the Potency [1] is reported as inconclusive: 12.6 µM [rising, single point].
With C[C@H](Oc1ccc(Oc2cnc3ccc(Cl)cc3n2)cc1)C(=O)O the activity change, negative = inhibition [1] was inconclusive: -13.1% [at 7.6 µM] and the activity change, negative = inhibition (at 38.2 µM (top of the series)) was inactive: -16.3%.
With CC(C)c1ccc(S(=O)(=O)N2CCN(CC(=O)Nc3ccc4c(c3)OCO4)CC2)cc1 the activity change, negative = inhibition [1] was inconclusive: 14.1%.
For COCCn1c(=O)[nH]c2cc(C(=O)NCCN3CCN(c4ccc(OC)cc4)CC3)ccc2c1=O, the activity change, negative = inhibition [1] was “inactive”.
For Cc1cc(C)c(S(=O)(=O)Nc2ccc(O)cc2)c(C)c1, the activity change, negative = inhibition [1] was “inactive”.
With Cc1nc(N2CCN(C(=O)c3ccco3)CC2)c2c3c(sc2n1)CCC3 the Potency [1] was inconclusive: 7.94 µM [rising, partial curve].
For CCOC(=O)C1=C(C)NC(C)=C(C(=O)OCC)C1C(=O)OCC(=O)N1CCc2ccccc2C1, the activity change, negative = inhibition [1] was inconclusive: -15%.
For COc1ccc(C(=O)N2CCC3(CC2)CN(C(=O)NC(C)C)C3)cc1, the activity change, negative = inhibition [1] was “inactive”.
For COCCn1c(=O)c(C)nc2cnc(N3CCOCC3)nc21, the Potency [1] was inconclusive: 12.6 µM [rising, single point].
For CCOc1nc(-c2ccc(OC)cc2)ccc1-c1noc(-c2ccncc2)n1, the activity change, negative = inhibition [1] was inconclusive: 20.4%.
For COc1ccccc1OCC(O)Cn1c(=N)n(Cc2ccccc2)c2ccccc21 (stereo unspecified), the activity change, negative = inhibition [1] was inconclusive: -10.6%.
For COc1ccc(-c2cc(C(=O)N3CC4(C)CC3CC(C)(C)C4)no2)cc1 (stereo unspecified), the activity change, negative = inhibition [1] was inconclusive: 6.72%.
For CCOC(=O)N1CCC(NC(=O)Cn2nc(-c3ccccc3)ccc2=O)CC1, the Potency [1] was inconclusive: 2.51 µM [rising, full curve].
For CCOC(=O)c1ccc(-n2c(-c3ccco3)nc3ccccc3c2=O)cc1, the activity change, negative = inhibition [1] was “inactive”.
In the case of O=C(Nc1ccc2nc(-c3cccnc3)[nH]c2c1)c1ccco1, the Potency [1] is reported as inconclusive: 10 µM [rising, partial curve].
For CN1CCN(c2ncc3nc(-c4cc(F)cc(F)c4)c(=O)n(-c4ccccc4)c3n2)CC1, the Potency [1] was inconclusive: 2 µM [rising, full curve].
In the case of COc1cc(NC(=O)c2cccs2)c(OC)cc1NC(=O)CCn1nnc2ccccc21, the activity change, negative = inhibition [1] is reported as “inactive”.
For CCOC(=O)c1cnn2c(C)cc(-c3ccccc3)nc12, the Potency [1] was inconclusive: 12.6 µM [rising, partial curve].
With COc1cccc(-c2cnc(NCc3cc(Cl)ccc3O)n2C)c1 the activity change, negative = inhibition [1] was inconclusive: -8.17%.
In the case of COc1ccc(-c2noc(-c3ccccc3Cl)n2)cc1OC, the Potency [1] is reported as inconclusive: 20 µM [rising, single point].
With COC(=O)c1c(-c2cc(OC)c(OC)c(OC)c2)c2ccc(OCc3ccccn3)cc2c(=O)n1-c1ccc(N)cc1 the Potency [1] was active: 12.6 µM.
In the case of CC(CN1CCCC(C(N)=O)C1)c1ccccc1 (stereo unspecified), the activity change, negative = inhibition [1] is reported as “inactive”.
With O=C(O)[C@@H]1[C@H](C(=O)O)[C@H]2C(=O)C=C[C@H]1N2Cc1ccccc1 the Potency [1] was inconclusive: 1 µM [rising, single point].
With O=C(Nc1ccc(Oc2ccc(Cl)cc2)cc1)c1ncn[nH]1 the Potency [1] was inconclusive: 2 µM [rising, partial curve].
For CCCCNC(NCCCC)=C(S(=O)(=O)CC)S(=O)(=O)CC, the activity change, negative = inhibition [1] was inconclusive: -4.52% [at 7.6 µM].
With Cc1c(C(=O)N2CCN(C(=O)c3ccco3)CC2)sc2nc(-c3ccc(F)cc3)cn12 the Potency [1] was inconclusive: 5.01 µM [rising, partial curve].
In the case of Cc1ccc(C)c(OCCCC(=O)Nc2ccc(N3CCOCC3)cc2)c1, the activity change, negative = inhibition [1] is reported as “inactive”.
For NC(=O)C1CCN(C(=O)c2cnn(-c3ccccc3)c2NC(=O)c2ccco2)CC1, the activity change, negative = inhibition [1] was “inactive”.
In the case of COc1nnc(OC)c2ccccc12, the activity change, negative = inhibition [1] is reported as inconclusive: 25%.
In the case of COc1ccccc1CNc1nc(-c2ccccc2CN(C)C)nc2ccccc12, the activity change, negative = inhibition [1] is reported as inconclusive: 25.5%.
In the case of O=C(NCCNC(=O)C(c1ccccc1)c1ccccc1)c1ccco1, the activity change, negative = inhibition [1] is reported as “inactive”.
In the case of CN1CCN(CCCNC(=O)c2cc3c(=O)oc4ccccc4c3s2)CC1, the Potency [1] is reported as inconclusive: 12.6 µM [rising, single point].
In the case of COC(=O)c1[nH]c2cc(OC)ccc2c1N, the activity change, negative = inhibition [1] is reported as inconclusive: -18.4%.
With NCCNCCNCCN the activity change, negative = inhibition [1] was “inactive”.
In the case of COc1ccc(-n2c(=O)c(-c3cccc(C#N)c3)nc3cnc(N4CCNCC4)nc32)cc1, the Potency [1] is reported as active: 10 µM.
In the case of CCOc1ccc(N2C(=O)c3cccnc3C2Nc2ccc(C)cc2)cc1 (stereo unspecified), the activity change, negative = inhibition [1] is reported as inconclusive: -18.2%.
